Laboratory results: the supplement of paper PMC6089552
In all, about 3,200 compounds went through this assay and about 300 (9.4%) showed activity. Only a part is listed here, and it is no random draw.

Tested on: A673/TR/shEF
Assay: cell viability (LOESS-normalised, relative to median of negative controls) (log2 ratio); higher = more viable cells (less compound effect), active = hit call of the paper (over 3 MAD below the median)
Settings: treatment time: 72 h
How it was run: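 Doxycycline, present or absent from 24 h before compounds, was used to induce EWS-FLI1 shRNA knockdown in A673/TR/shEF Ewing sarcoma cells at 1,500 per well in 384-well plates. Cells then received library compounds at two or more concentrations, or DMSO controls, for three days. Viability was measured by CellTiter-Glo luminescence on an Envision reader, and per-plate LOESS correction, division by the negative-control median and log2 transformation followed.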

[1] = 0.25 µM, library screen: screen1, EWS-FLI1 expression: high (no doxycycline)
[2] = 0.25 µM, library screen: screen1, EWS-FLI1 expression: low (doxycycline-induced shRNA knockdown)
[3] = 2.5 µM, library screen: screen1, EWS-FLI1 expression: high (no doxycycline)
[4] = 2.5 µM, library screen: screen1, EWS-FLI1 expression: low (doxycycline-induced shRNA knockdown)
[5] = 0.25 µM, library screen: screen2, EWS-FLI1 expression: high (no doxycycline)
[6] = 0.25 µM, library screen: screen2, EWS-FLI1 expression: low (doxycycline-induced shRNA knockdown)
[7] = 2.5 µM, library screen: screen2, EWS-FLI1 expression: high (no doxycycline)
[8] = 2.5 µM, library screen: screen2, EWS-FLI1 expression: low (doxycycline-induced shRNA knockdown)
[9] = 0.103 µM, library screen: screen3, EWS-FLI1 expression: high (no doxycycline)
[10] = 0.103 µM, library screen: screen3, EWS-FLI1 expression: low (doxycycline-induced shRNA knockdown)
[11] = 0.308 µM, library screen: screen3, EWS-FLI1 expression: high (no doxycycline)
[12] = 0.308 µM, library screen: screen3, EWS-FLI1 expression: low (doxycycline-induced shRNA knockdown)
[13] = 0.926 µM, library screen: screen3, EWS-FLI1 expression: high (no doxycycline)
[14] = 0.926 µM, library screen: screen3, EWS-FLI1 expression: low (doxycycline-induced shRNA knockdown)
[15] = 2.8 µM, library screen: screen3, EWS-FLI1 expression: high (no doxycycline)
[16] = 2.8 µM, library screen: screen3, EWS-FLI1 expression: low (doxycycline-induced shRNA knockdown)
[17] = 8.3 µM, library screen: screen3, EWS-FLI1 expression: high (no doxycycline)
[18] = 8.3 µM, library screen: screen3, EWS-FLI1 expression: low (doxycycline-induced shRNA knockdown)
[19] = 25 µM, library screen: screen3, EWS-FLI1 expression: high (no doxycycline)
[20] = 25 µM, library screen: screen3, EWS-FLI1 expression: low (doxycycline-induced shRNA knockdown)
[21] = 0.025 µM, library screen: screen2, EWS-FLI1 expression: high (no doxycycline)
[22] = 0.025 µM, library screen: screen2, EWS-FLI1 expression: low (doxycycline-induced shRNA knockdown)
[23] = 25 µM, library screen: screen2, EWS-FLI1 expression: high (no doxycycline)
[24] = 25 µM, library screen: screen2, EWS-FLI1 expression: low (doxycycline-induced shRNA knockdown)

Measured: cell viability (log2)

CCCCCCCCCCCCC[N+](C)(C)Cc1ccccc1
inactive: [1] 0.0353 | [2] -0.0172 | [3] -0.0798 | [4] -0.173

CCCCCCCCCCC/C=C\C(C)(C)/C=C\CCCC(=O)O
inactive: [5] 0.118 | [6] 0.019 | [7] 0.139 | [8] 0.121

CCOc1ccccc1OCCN[C@H](C)Cc1ccc(OC)c(S(N)(=O)=O)c1
inactive: [9] 0.0525 | [10] 0.0533 | [11] 0.126 | [12] 0.0736 | [13] 0.134 | [14] 0.0525 | [15] 0.0143 | [16] 0.0472 | [17] -0.00938 | [18] 0.0323 | [19] 0.146 | [20] 0.0928

CCn1cc(C(=O)O)c(=O)c2cnc(N3CCCC3)nc21
inactive: [1] 0.172 | [2] 0.12 | [3] 0.205 | [4] 0.191

CC(C)[N+]1(C)C2CCC1CC(OC(=O)C(CO)c1ccccc1)C2 (centres undefined)
inactive: [9] 0.111 | [10] 0.106 | [1] 0.0971 | [2] 0.11 | [5] 0.19 | [6] -0.00964 | [11] 0.125 | [12] 0.138 | [13] 0.121 | [14] 0.138 | [3] 0.137 | [4] 0.0832 | [7] 0.099 | [8] 0.165 | [15] 0.117 | [16] 0.117 | [17] 0.127 | [18] 0.0463 | [19] 0.148 | [20] 0.129

O=S(=O)(O)CCS
inactive: [9] 0.0839 | [10] -0.0167 | [1] 0.0837 | [2] 0.0671 | [11] 0.0789 | [12] 0.105 | [13] 0.0779 | [14] 0.129 | [3] 0.142 | [4] 0.117 | [15] 0.0725 | [16] 0.0973 | [17] 0.122 | [18] 0.0634 | [19] 0.0823 | [20] 0.116

O[C@H]1[C@H]2c3cc4c(cc3CN3CCC(=C[C@@H]1O)[C@H]23)OCO4
inactive: [1] 0.0121 | [2] 0.0722 | [3] 0.0564 | [4] -0.019

CCCCNC(=O)NS(=O)(=O)c1ccc(C)cc1
inactive: [1] 0.0859 | [2] 0.0898 | [5] 0.061 | [6] 0.0489 | [3] 0.148 | [4] 0.184 | [7] 0.107 | [8] 0.162

O=C(O)c1cc(-c2ccc(F)cc2F)ccc1O
inactive: [1] 0.035 | [2] 0.0141 | [3] 0.119 | [4] 0.189

CC(=O)[C@H]1CC[C@H]2[C@@H]3C[C@H](C)C4=CC(=O)CC[C@]4(C)[C@H]3[C@@H](O)C[C@]12C
inactive: [1] 0.0813 | [2] 0.0205 | [3] 0.139 | [4] 0.0447

COC(=O)c1c(C)cc(O)cc1O
inactive: [1] 0.114 | [2] 0.0656 | [3] 0.151 | [4] 0.171

CCCS(=O)(=O)Nc1ccc(F)c(C(=O)c2c[nH]c3ncc(-c4ccc(Cl)cc4)cc23)c1F
inactive: [9] 0.0151 | [10] 0.0756 | [11] -0.0936 | [12] 0.103 | [13] -0.131 | [14] 0.105 | [15] -0.159 | [16] 0.126 | [17] -0.177 | [18] 0.106 | [20] 0.0931
active: [19] -0.179

COc1ccc(-c2cc(=O)c3c(O)cc(O[C@@H]4O[C@H](CO[C@@H]5O[C@@H](C)[C@H](O)[C@@H](O)[C@H]5O)[C@@H](O)[C@H](O)[C@H]4O)cc3o2)cc1O
active: [1] -0.0892 | [3] -0.0968

CC=C(C)C(=O)OC1[C@@H]2C=C3C4CC(=O)O[C@@H](c5ccoc5)[C@]4(C)CCC3[C@@](C)(C2=O)[C@@H](C(O)C(=O)OC)C1(C)C (some centres undefined)
inactive: [1] 0.075 | [2] -0.00745 | [3] 0.149 | [4] 0.0968

COC(=O)C[C@H]1C(C)(C)[C@@H](O)[C@@H]2CC3=C4CC(O)O[C@@H](c5ccoc5)[C@]4(C)CCC3[C@@]1(C)C2=O (some centres undefined)
inactive: [1] 0.0392 | [2] 0.101 | [3] 0.068 | [4] 0.138

COC(=O)c1c(OC)cc2c(c1C)Oc1c(Cl)c(OC(C)=O)c(Cl)c(C)c1C(=O)O2
inactive: [1] 0.0846 | [2] 0.126 | [3] 0.0897 | [4] 0.152

CC(=O)OC1(C)CCC23CC1C(C)(C)[C@@H]2CC[C@H]3C (some centres undefined)
inactive: [1] 0.0148 | [2] 0.0289 | [3] 0.15 | [4] 0.0585

CC(=O)N[C@H]1[C@H]([C@H](O)[C@H](O)CO)O[C@](O)(C(=O)O)C[C@@H]1O
inactive: [1] 0.0617 | [2] -0.0233 | [3] 0.0203 | [4] -0.134

CCOC(=O)c1oc2c(OC)c(O)cc(O)c2c(=O)c1-c1cc(OC)c(OC)c(OC)c1
inactive: [1] 0.036 | [2] 0.0305 | [3] -0.00359 | [4] -0.108

Cn1cc(-c2ccc3nnc(C(F)(F)c4ccc5ncccc5c4)n3n2)cn1
inactive: [9] -0.0312 | [10] 0.0443 | [11] 0.0814 | [12] 0.00679 | [13] -0.00123 | [14] 0.0472 | [15] 0.0171 | [16] -0.0221 | [17] 0.0639 | [18] 0.086 | [19] 0.0673 | [20] 0.0926

c1ccc2[nH]c(-c3cscn3)nc2c1
inactive: [21] 0.221 | [22] 0.00965 | [1] 0.11 | [2] 0.0218 | [5] 0.197 | [6] 0.0407 | [3] 0.192 | [4] 0.119 | [7] 0.136 | [8] 0.0331 | [23] 0.0874 | [24] 0.0288

CN1[C@@H](CC(=O)c2ccccc2)CCC[C@H]1C[C@H](O)c1ccccc1
inactive: [1] 0.0499 | [2] 0.0843 | [5] 0.0574 | [6] 0.0857 | [3] 0.0536 | [4] 0.0322 | [7] 0.132 | [8] 0.0677

CSc1nc(N)c2ncn([C@@H]3O[C@H](COP(=O)(O)OP(=O)(O)OP(=O)(O)O)[C@H](O)C3O)c2n1 (some centres undefined)
inactive: [5] 0.257 | [6] 0.0636 | [7] 0.0652 | [8] 0.053

CC(=O)C(C)=O
inactive: [5] 0.0591 | [6] 0.121 | [7] 0.128 | [8] 0.16

CCCCCCCCc1ccc(CCC(N)(CO)CO)cc1
active: [19] -0.341 | [20] -0.161
inactive: [9] 0.0814 | [10] 0.0528 | [11] 0.0332 | [12] -0.0148 | [13] 0.0328 | [14] 0.0341 | [15] 0.00825 | [16] 0.0473 | [17] -0.0193 | [18] 0.0563

COC(=O)c1c(C)c2c(c(C)c1OC(C)=O)OC(=O)c1c(C)c(Cl)c(O)c(Cl)c1O2
inactive: [1] 0.0664 | [2] 0.0141 | [3] 0.0918 | [4] 0.03

CC(C)c1c(O)ccc2c1CCC1[C@@](C)(C(=O)O)CCC[C@]21C (some centres undefined)
inactive: [1] 0.0397 | [2] 0.152 | [3] 0.0988 | [4] 0.234

CC(=O)OCC1=C(C(=O)O)N2C(=O)[C@@H](NC(=O)CSc3ccncc3)[C@H]2SC1
inactive: [1] 0.0377 | [2] 0.00515 | [5] 0.158 | [6] 0.0685 | [3] 0.129 | [4] 0.115 | [7] 0.0516 | [8] 0.0791

Cc1cc(O)c2c(c1)Cc1cccc(O)c1C2=O
inactive: [1] 0.119 | [2] 0.00964 | [3] 0.16 | [4] 0.111

COC(=O)c1c(-c2cc(OC)c(OC)c(OC)c2)c2ccnc(OCc3ncccn3)c2c(=O)n1Cc1ccnc(C)c1
inactive: [5] 0.081 | [6] 0.0559 | [7] 0.249 | [8] 0.00697

C[C@]12CC[C@@H]3c4ccc(O)cc4CC[C@H]3[C@@H]1CCC2=O
inactive: [9] 0.082 | [10] 0.0198 | [1] 0.266 | [2] 0.22 | [5] 0.101 | [6] 0.114 | [11] -0.0119 | [12] 0.0733 | [13] 0.0965 | [14] 0.0845 | [4] 0.181 | [7] 0.0352 | [8] 0.0654 | [15] 0.0464 | [16] 0.0309 | [17] 0.0237 | [18] 0.0831 | [19] 0.168 | [20] -0.00855
0.314: [3]

CC(=O)c1c(O)c(C)c(O)c2c1OC1=CC(=O)C(C(C)=O)C(=O)C12C (centres undefined)
inactive: [21] 0.112 | [22] 0.00783 | [1] 0.0672 | [2] 0.0498 | [5] 0.101 | [6] 0.0398 | [3] 0.209 | [4] 0.0665 | [7] 0.0699 | [8] 0.0728 | [23] 0.183 | [24] 0.0624

CC(=O)OCC(=O)[C@@]1(O)CC[C@H]2[C@@H]3C[C@H](C)C4=CC(=O)C=C[C@]4(C)[C@H]3[C@@H](O)C[C@@]21C
inactive: [1] 0.0844 | [2] -0.0725 | [3] 0.0783 | [4] -0.0354
